Hit rate of the full screen: of about 310,000 compounds, about 14,000 (4.5%) showed an effect of 50% or more. Effects have a minus sign here. The list shows a part of the results.
target: human ether-à-go-go-related gene (hERG) potassium channel (human, UniProt Q12809); assay: primary screen, population patch clamp on CHO cells stably expressing hERG
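Further: peak tail current of the secondary pulse compared with the same well before compound.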

human ether-à-go-go-related gene (hERG) potassium channel, sequence (Q12809 whole entry, looked up): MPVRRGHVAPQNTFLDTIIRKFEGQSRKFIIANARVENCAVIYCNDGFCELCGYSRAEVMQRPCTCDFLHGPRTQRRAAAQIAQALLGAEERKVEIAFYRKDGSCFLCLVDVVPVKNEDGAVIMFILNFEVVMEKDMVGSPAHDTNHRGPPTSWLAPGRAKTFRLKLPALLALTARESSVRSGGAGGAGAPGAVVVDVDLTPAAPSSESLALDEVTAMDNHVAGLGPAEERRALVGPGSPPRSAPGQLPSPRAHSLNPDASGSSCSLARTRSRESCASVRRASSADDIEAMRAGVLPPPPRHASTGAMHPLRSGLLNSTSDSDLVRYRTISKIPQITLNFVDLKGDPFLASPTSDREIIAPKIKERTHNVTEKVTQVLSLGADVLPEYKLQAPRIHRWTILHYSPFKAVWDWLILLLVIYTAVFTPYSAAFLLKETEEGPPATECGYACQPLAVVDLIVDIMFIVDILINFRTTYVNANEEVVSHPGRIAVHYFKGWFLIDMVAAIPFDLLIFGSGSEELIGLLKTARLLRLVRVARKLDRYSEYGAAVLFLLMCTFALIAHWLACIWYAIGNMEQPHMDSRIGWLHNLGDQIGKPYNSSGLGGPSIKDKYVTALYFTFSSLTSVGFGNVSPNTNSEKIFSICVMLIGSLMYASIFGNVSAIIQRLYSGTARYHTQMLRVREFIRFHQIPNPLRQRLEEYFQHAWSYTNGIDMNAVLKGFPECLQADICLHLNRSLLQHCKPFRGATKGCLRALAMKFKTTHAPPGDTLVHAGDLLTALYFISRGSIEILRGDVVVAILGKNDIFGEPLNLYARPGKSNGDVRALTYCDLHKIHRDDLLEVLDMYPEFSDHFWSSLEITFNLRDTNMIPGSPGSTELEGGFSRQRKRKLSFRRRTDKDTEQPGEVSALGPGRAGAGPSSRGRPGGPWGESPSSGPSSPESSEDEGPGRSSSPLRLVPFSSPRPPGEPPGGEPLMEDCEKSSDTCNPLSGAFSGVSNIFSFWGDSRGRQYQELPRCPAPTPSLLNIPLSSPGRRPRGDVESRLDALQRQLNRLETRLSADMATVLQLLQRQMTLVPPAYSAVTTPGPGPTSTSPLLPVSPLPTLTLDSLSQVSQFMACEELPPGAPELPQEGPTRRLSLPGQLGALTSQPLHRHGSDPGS

| SMILES | hERG current change (%, negative = inhibition) at 10uM [%] |
| --- | --- |
| Cc1ccc(-n2nc3c(N4CCC(C(=O)NCCc5cccs5)CC4)nnc(C)c3c2C)cc1 | 0.41 |
| c1ccc(SCCOCCN2CCc3ccccc3C2)cc1 | -75.3 |
| O=C(O)CCC(=O)Nc1nc2nc(-c3ccccc3)cc(-c3ccccc3)n2n1 | -15.7 |
| O=C(c1ccc2c(c1)OCO2)N1CCN(c2ncccn2)CC1 | 21.5 |
| N=c1c(C(=O)NC2CCCC2)cc2c(=O)n3ccccc3nc2n1CCCN1CCOCC1 | -78.2 |
| Cc1cccc(-c2nc(CN3CCN(C(=O)C4CCCO4)CC3)cs2)c1 (stereo not shown) | -1.71 |
| CCN(C(=O)c1cc(S(=O)(=O)N2CCc3ccccc32)cn1C)c1ccccc1 | -23.6 |
| COc1cc(/C=C(\C#N)C(=O)NCC2CCCO2)ccc1OCCC(C)C (stereo not shown) | 4.67 |
| O=C(Nc1cccc(F)c1)C1CCN(C(=O)c2ccccc2Cl)CC1 | -8.66 |
| O=C(Cn1c(-c2ccco2)nc2ccccc21)N1CCCCC1 | -10.1 |
| COc1cccc(C2C=C(Nc3ccccc3)C(=O)N2c2ccccc2)c1 (stereo not shown) | -4.62 |
| CN(c1ccc(C(=O)Nc2ccc(CC#N)cc2)cc1)S(C)(=O)=O | 26.4 |
| O=C(Nc1ccccc1N1CCN(c2ccccc2)CC1)c1ccccc1F | 8.96 |
| Cc1[nH]n(-c2ccccc2)c(=S)c1C=NCCCN=Cc1c(C)[nH]n(-c2ccccc2)c1=S | -2.22 |
| CCN(Cc1ccc2c(c1)OCO2)C(=O)CSc1ncnc2sccc12 | -23.4 |
| CN(C)CCCN1c2ccccc2Sc2ccc(Cl)cc21.Cl | -42.2 |
| CC(C)CNC(=O)COc1ccc(Sc2ccc(OCC(=O)NCC(C)C)cc2)cc1 | 2.92 |
| C=CCOc1ccc(C(c2c(C)n(C)n(-c3ccccc3)c2=O)c2c(C)n(C)n(-c3ccccc3)c2=O)cc1 | 12 |
| CSCCC(NS(=O)(=O)c1ccccc1)C(=O)OCc1cc(=O)oc2cc(O)ccc12 (stereo not shown) | -57.3 |
| CC(C)c1[nH]nc2c1C(C(C)C)C(C#N)=C(N)O2 (stereo not shown) | 2.97 |
| Cc1ccc(F)cc1NC(=O)COC(=O)COc1ccc(C#N)cc1 | -2.48 |
| C=CCN(CC=C)CCOc1cc(C)ccc1[N+](=O)[O-].O=C(O)C(=O)O | -9.22 |

| SMILES | hERG current change (%, negative = inhibition) at 10uM [%] |
| --- | --- |
| CCCN1CCC(=O)N(CCN=[N+]=[N-])CC1 | 20.6 |
| COCCNC(=O)c1ccccc1NC(=O)CCSc1ccccc1 | -1.11 |
| COc1ccc(CN2CCN(c3ccccn3)CC2)c(OC)c1C.O=C(O)C(=O)O | -37.1 |
| C=CCn1c(Cc2csc(N)n2)nnc1SCC(=O)Nc1ccccc1C(F)(F)F | 4.01 |
| O=C(CN1CCN(Cc2ccccc2)CC1)Nc1ccc(S(=O)(=O)N2CCOCC2)cc1 | -4.43 |
| COc1ccc(C(CC(=O)Nc2ccc(F)cc2)c2ccccc2)cc1 (stereo not shown) | 9.13 |
| CC(=O)C1=C(N2CCCCC2)CCC1=O | 23.5 |
| N#Cc1nc(-c2ccc(F)cc2)oc1NCc1cccc2c1OCO2 | 15 |
| COc1cccc(N2CCN(S(=O)(=O)c3cc4c(cc3Cl)NC(=O)CO4)CC2)c1 | 12 |
| CCOC(=O)c1ccccc1NC(=O)COc1cc(=O)n(CC)c2ccccc12 | 5.47 |
| Cc1ccccc1C(=O)OCC(=O)N(C)c1c(N)n(Cc2ccccc2)c(=O)[nH]c1=O | 18.7 |
| O=C(C1CCN(c2ncnc3c2nc2n3CCCCC2)CC1)N1CCCCC1 | 16 |
| COc1ccc(NC(=O)c2nc[nH]c2C(=O)N(C)Cc2ccccc2)cc1 | -20.2 |
| CC(c1ccccn1)N(CCN(C)C)C(=S)Nc1cccc(F)c1 (stereo not shown) | -6.86 |
| Cc1cc(NC(=O)c2c([N+](=O)[O-])c(C)nn2C)no1 | 14 |
| Cc1cc(Cl)ccc1NC(=O)/C=N/O | 7.89 |
| COC(=O)c1cc(NC(=O)c2cccc(C(F)(F)F)c2)c(=O)oc1C | 16.9 |
| CC(=O)Nc1ccc(SCC(=O)OCC(=O)NC(=O)NCc2ccco2)cc1 | 15.4 |
| O=C(Nc1ccccc1C(=O)N/N=C/c1ccco1)c1ccccc1Cl | 2.55 |
| CCCC1(C(=O)OCC)NC(c2ccc(N(C)C)cc2)C2C(=O)N(c3ccc(OCC)cc3)C(=O)C21 (stereo not shown) | -3.17 |
| Cc1cc(OCc2ccc(C(=O)NN=C3CCCC3)cc2)ccc1Cl | 1.78 |
